The list shows a part of the results.

The experiment deals with T1, OsWOX13 (Oryza sativa, UniProt Q5QMM3 1-267).
T1 sequence: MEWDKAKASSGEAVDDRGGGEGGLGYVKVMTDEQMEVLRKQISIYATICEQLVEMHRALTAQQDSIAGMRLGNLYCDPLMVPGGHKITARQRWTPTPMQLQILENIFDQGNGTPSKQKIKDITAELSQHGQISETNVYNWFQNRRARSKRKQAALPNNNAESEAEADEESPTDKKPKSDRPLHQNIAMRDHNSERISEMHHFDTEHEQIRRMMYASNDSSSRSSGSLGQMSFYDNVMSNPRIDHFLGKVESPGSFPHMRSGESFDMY
Kind of experiment: protein-binding microarray (RPBM); PBS, 2% BSA, 51.3 ng/ul salmon testes DNA, 50 uM zinc acetate, 200 nM TF, 25 C, 1 h; high values mean tight binding. As to conditions: protein: recombinant; tags: N-terminal polyhistidine and DsRed monomer fusion (pET32a); label: CyDye5-dUTP incorporated in the synthesized complementary strand; 3' TTTTT single-stranded linker to array surface; dsDNA, one strand shown. The method, boiled down: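 Binding signal is defined as the fluorescence intensity of each feature in arbitrary units, read on an Axon 4000B scanner. Transcription factors with N-terminal polyhistidine and DsRed fusions came from E. coli BL21-CodonPlus and were purified on Ni–NTA. They were incubated at 200 nM for 1 h at 25 °C on a custom Agilent array that had been made double-stranded with Cy5-dUTP, with 50 µM zinc acetate present, and the array was washed.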
For “AATTAATTGGAAAGTTCATTTGGGCCACGTGCCAAATACACGGAGTCACCTAGTGCAG”, the binding signal was 22900 fluorescence intensity (a.u.). “CACTAAATTTTAACACCTTCAGCGAATTTCTGTGCACGGCCGGAGTCACCTAGTGCAG”: the binding signal was 8790 fluorescence intensity (a.u.). For “TTACACCAAAGTTTATGCAATTAGGAATAATTGCATTGGACGGAGTCACCTAGTGCAG” the value was 3590 fluorescence intensity (a.u.); for “GTTCATCAATCTACTGTACTGGCCTCCTTCTCAGCTCTCACGGAGTCACCTAGTGCAG”, 7190 fluorescence intensity (a.u.); for “TCGGTCCTAATGTAATTACTTCTAATAGTACAAAGAGTTACGGAGTCACCTAGTGCAG”, 7030 fluorescence intensity (a.u.). As for “CACCAGTGATCTTATAATTGTAAATTTTGATCCAAGATTCCGGAGTCACCTAGTGCAG”, the figure is 3800 fluorescence intensity (a.u.); as for “AAGATTTGCTGGGAGGGTGGGGTGGGGATTAGTCCCTAAACGGAGTCACCTAGTGCAG”, 7320 fluorescence intensity (a.u.). As for “TTTGATGATGGATGGGCAGATGCGTGGTGGTCCTGAATCTCGGAGTCACCTAGTGCAG”, the figure is 21100 fluorescence intensity (a.u.); as for “CTCTAACTTTATTGACAAGGCATTCTCTTAGTCCTGTAGGCGGAGTCACCTAGTGCAG”, 15800 fluorescence intensity (a.u.). For the sequence “GGAAATTGAAGGGGAGTAAGAGTAGGAATACGGTGCAAATCGGAGTCACCTAGTGCAG”, the binding signal was 15300 fluorescence intensity (a.u.). As for “TGTGATCATATCACAGATTGGATAAGTAAATCATAAGAAACGGAGTCACCTAGTGCAG”, the figure is 3290 fluorescence intensity (a.u.). For the sequence “TAATTAAATTTTAGTAATTCATAGGGCGTTAATGCTTTTCCGGAGTCACCTAGTGCAG”, the binding signal was 5080 fluorescence intensity (a.u.).

Take “ATGAAATTAGTTTGTTCATTCGTATTCGAAAACCCCTTCCCGGAGTCACCTAGTGCAG”: the binding signal is 7400 fluorescence intensity (a.u.). Regarding “TTCCTAATTAATAGATAAACTGACATGCCGCATCCTCTTTCGGAGTCACCTAGTGCAG”, the binding signal is 27000 fluorescence intensity (a.u.).

As to “TTTTGACTAATAATTAATTCACATACAACTACATTTAGGGCGGAGTCACCTAGTGCAG”, the binding signal was 20800 fluorescence intensity (a.u.). As for “AGTCACACCAGCATTTGCTAATTGGCTGCTCATCTGCTGTCGGAGTCACCTAGTGCAG”, the figure is 3980 fluorescence intensity (a.u.); as for “GCATTCTACTCTTTTGATTAGGACTAATAATAAGATGAAACGGAGTCACCTAGTGCAG”, 6860 fluorescence intensity (a.u.); as for “GTTACAAGTTAAAATTTTAATTTTAAAGCTGATTTTATCCCGGAGTCACCTAGTGCAG”, 4000 fluorescence intensity (a.u.). As for “GTGTAATAAATTGACAAGATAGATTGATGCCCAGTTTTCACGGAGTCACCTAGTGCAG”, the figure is 37600 fluorescence intensity (a.u.). As for “AGCTAATTAACTGAAGCCAGGTGTGAAGTTGAGTTACAGCCGGAGTCACCTAGTGCAG”, the figure is 45100 fluorescence intensity (a.u.); as for “GGACTGCCAGCCACCCATCAATCAATTGCTGAAAAGGTCTCGGAGTCACCTAGTGCAG”, 5780 fluorescence intensity (a.u.); as for “AACAAAATCACGCTCTGATTATTTTATCGTCTAGAATTAACGGAGTCACCTAGTGCAG”, 9000 fluorescence intensity (a.u.). Take “AAGAAATTAAATATTATTACTTGTTTGATCTTTTCCTTTTCGGAGTCACCTAGTGCAG”: the binding signal was 3900 fluorescence intensity (a.u.). As for “CACTGACATAATTACCCTTGGAAGTTATTATCAACGGAAGCGGAGTCACCTAGTGCAG”, the figure is 35600 fluorescence intensity (a.u.); as for “AAGCACAATTAATCTGAATAATTGAAGTTCAGAGCAGCAGCGGAGTCACCTAGTGCAG”, 39400 fluorescence intensity (a.u.). For “TTGGAATTATTGGATAAACTCGGCTCCAGATTGTTAGGTACGGAGTCACCTAGTGCAG” the value was 6970 fluorescence intensity (a.u.); for “AGCTTTTATTTAATTAATTATATACTAATTCCCCATTCTTCGGAGTCACCTAGTGCAG”, 24100 fluorescence intensity (a.u.). Take “TGTTTAGATTTGTTTCATTTTCTTCATACTTTGATGTCAACGGAGTCACCTAGTGCAG”: the binding signal is 5340 fluorescence intensity (a.u.). For “ATTGTCAAATCATAGCGTAATTAGGTTTAACAGATCCATCCGGAGTCACCTAGTGCAG” the value was 26900 fluorescence intensity (a.u.); for “CTAGGGTTCTTGATCAGTGATTGTGTGACAGTGTGAGAGGCGGAGTCACCTAGTGCAG”, 3410 fluorescence intensity (a.u.). “CCTAGTTTATTGTGTACTAATTTGTTGATGAATGGCATGTCGGAGTCACCTAGTGCAG”: the binding signal was 14900 fluorescence intensity (a.u.). As for “TACTGGGTGATTGCTTTCTACCCCGCAATAAGAGATGAGTCGGAGTCACCTAGTGCAG”, the binding signal was 16000 fluorescence intensity (a.u.).

On to “ACATTGATTTGCAGAAGGACTATTTTGTAATAGTAAAGTACGGAGTCACCTAGTGCAG”, for which the binding signal is 22200 fluorescence intensity (a.u.). As for “TCACATTCTTGCATGATTGAACACTCCCTTTCATCCCTCACGGAGTCACCTAGTGCAG”, the figure is 18900 fluorescence intensity (a.u.). For “ACCCTGTTTCGCTCCTAATTAAGATAGGAATTGTTACGATCGGAGTCACCTAGTGCAG” the value was 4870 fluorescence intensity (a.u.). On to “TCTAATAACCCCTTAATTAGCATCAAAATCATGAGTTTAACGGAGTCACCTAGTGCAG”, for which the binding signal is 6570 fluorescence intensity (a.u.). As for “CCATTAATTTTCCATTGTTAGAATGTGAATTTCAATACATCGGAGTCACCTAGTGCAG”, the figure is 12300 fluorescence intensity (a.u.); as for “CACATGTGATTGGGCCTCGAGCCTCAGCGTGCGTGCGCCCCGGAGTCACCTAGTGCAG”, 20400 fluorescence intensity (a.u.); as for “CCTGAATTTTGCTGCTGATTAGAATGTTATAAACATAACTCGGAGTCACCTAGTGCAG”, 20400 fluorescence intensity (a.u.).

Take “GGCCCCTTGATAGGTAATAGCCCTAATCCAGTTGATATGGCGGAGTCACCTAGTGCAG”: the binding signal was 8820 fluorescence intensity (a.u.).

On to “TCATTGATTAAGAAGAATAGTTAATTCTTGGGCAACTGCGCGGAGTCACCTAGTGCAG”, for which the binding signal was 25800 fluorescence intensity (a.u.).

“TTTAATTTCACCAGATAAGATATACACAAACCCTGGTGATCGGAGTCACCTAGTGCAG”: the binding signal is 4560 fluorescence intensity (a.u.).

Source of the values: PMC7819943, “Rice protein-binding microarrays: a tool to detect cis-acting elements near promoter regions in rice”.
